# Measurements reported in PubChem BioAssay AID624170 (National Center for Advancing Translational Sciences (NCATS), 2012).
# The whole screen tested about 410,000 compounds, of which about 850 (0.21%) were called active. Inconclusive means that the source gave no clear call. Such entries were picked first, then a sample of the others. Calls follow the shape of the dose curve; as a rule, active = well fitted inhibition curve with a large enough effect; inconclusive = small, poorly fitted or top-dose-only effect, or another doubt; inactive = no such curve, though single readings can be large or run the other way. Potencies of inconclusive entries are left out as doubtful fits.
# Molecular target: Glutaminase kidney isoform, mitochondrial (Homo sapiens) (UniProt O94925)
# UniProt O94925, sequence (O94925 whole entry, looked up, canonical isoform): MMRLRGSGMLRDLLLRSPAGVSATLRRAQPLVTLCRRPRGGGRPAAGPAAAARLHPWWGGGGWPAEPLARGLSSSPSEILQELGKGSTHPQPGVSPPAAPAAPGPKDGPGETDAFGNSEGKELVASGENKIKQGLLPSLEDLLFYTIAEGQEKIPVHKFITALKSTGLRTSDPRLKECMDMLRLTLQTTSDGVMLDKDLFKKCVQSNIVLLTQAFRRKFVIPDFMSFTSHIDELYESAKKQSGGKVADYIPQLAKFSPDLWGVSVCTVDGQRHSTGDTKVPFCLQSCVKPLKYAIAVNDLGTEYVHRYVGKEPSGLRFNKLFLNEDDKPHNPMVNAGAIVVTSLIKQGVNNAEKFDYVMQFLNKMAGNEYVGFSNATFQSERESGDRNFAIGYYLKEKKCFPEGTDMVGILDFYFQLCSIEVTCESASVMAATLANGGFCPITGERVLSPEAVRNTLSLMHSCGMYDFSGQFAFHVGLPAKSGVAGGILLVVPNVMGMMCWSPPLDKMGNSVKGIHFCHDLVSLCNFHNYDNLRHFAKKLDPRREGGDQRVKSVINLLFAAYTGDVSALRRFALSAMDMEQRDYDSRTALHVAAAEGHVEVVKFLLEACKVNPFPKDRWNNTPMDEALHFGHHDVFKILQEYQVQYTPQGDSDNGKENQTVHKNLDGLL
# Assay: qHTS for Inhibitors of Glutaminase (GLS)
# Settings: GLS enzymatic activity, qHTS titration; series mostly up to 45.5 µM; activity change, negative = inhibition: at the top concentration
# In short: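 Coupled fluorescence readout: glutamate oxidase/HRP/Amplex Red detect glutamate formed by hKGA from L-glutamine (1 mM solution added). Buffer 45 mM KH2PO4 pH 8.2, 0.02% Tween-20; reads at t0 and 30 min RT.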
# % is scaled to controls: 0 for no effect and ±100 for the full control effect; potency is read from the fitted curve at half-maximal effect; tags tell the direction and shape of the fitted curve.
Compound,Potency,"activity change, negative = inhibition"
Fc1ccc(/C=N/Nc2ccccn2)cc1,"inconclusive [inhibitor, single point]",
Cc1ccc(C)c(-n2sc3ccc(F)cc3c2=O)c1,"inconclusive [inhibitor, single point]",
Cc1ccc2nc(/C(C#N)=C/c3ccc(-c4ccccc4C(=O)O)o3)[nH]c2c1,"inconclusive [inhibitor, single point]",
S=C(NCc1ccccc1)NNc1ccccc1,"inconclusive [inhibitor, partial curve, poor fit]",
Cc1ccc(CCNC(=O)Cn2nc(C)c3c(C)n(-c4ccc(C)cc4)nc3c2=O)cc1,,inactive: 0.227%
Cc1cccc(CNC(=O)c2ccc(-c3nc(CS(=O)(=O)c4ccccc4)c(C)o3)cc2)c1,"inconclusive [inhibitor, full curve, poor fit]",
O=C1NC(=O)C(c2cn(-c3ccccc3)nc2-c2ccc(F)cc2)N1 (stereo unspecified),"inconclusive [inhibitor, single point]",
Cc1ccc(Cn2c(C(C)Nc3nc(-c4ccc(C)cc4)cs3)nc3cc(Cl)c(Cl)cc32)cc1 (stereo unspecified),active: 10 µM,
CCc1ccc(CNC(=O)c2nn(-c3ccc(C)c(C)c3)nc2CO)cc1,,inactive: -8.67%
Cc1ccc(S(=O)(=O)Nc2cc(C)c(O)c(Sc3n[nH]c(C)n3)c2)cc1,active: 10 µM,
Cc1ccc(-c2noc(CCC(=O)Nc3ccc(F)cc3Cl)n2)cc1,,inactive: 0.975%
CCN1C(=O)C(CC(=O)Nc2ccc(Cl)cc2)N(NC(=O)c2ccncc2)C1=S (stereo unspecified),"inconclusive [inhibitor, single point]",
O=S(=O)(Nc1cccc2ncccc12)c1cccs1,,inactive: 1.06%
N#Cc1c(-c2ccccc2)cc(-c2ccccc2)nc1SCCC(=O)O,"inconclusive [inhibitor, single point]",
Cc1cc(C)cc(NC(=O)CSCn2nnc3c(=O)[nH]c(Cc4ccc(F)cc4)nc32)c1,"inconclusive [inhibitor, single point]",
Cc1cc(C)c2nc(-c3ccco3)cc(C(=O)O)c2c1,active: 11.2 µM,
Cc1c(Cl)cccc1NC(=O)CNCc1ccccc1F,"inconclusive [inhibitor, single point]",
Cc1cc(=O)[nH]c(SCC(=O)Nc2ccc(S(N)(=O)=O)cc2)n1,"inconclusive [inhibitor, partial curve]",
Cc1noc(NS(=O)(=O)c2ccc(N/C=C\C(=O)c3cccc4ccccc34)cc2)c1C,"inconclusive [inhibitor, single point]",
CN(C)c1nc(=NCc2cccs2)ss1,"inconclusive [inhibitor, full curve, poor fit]",
Cc1cc2nn(-c3cccc4ccccc34)nc2cc1N,,inactive: -2.52%
CC1=NNC(=O)C1Cc1ccccc1C (stereo unspecified),"inconclusive [inhibitor, partial curve, poor fit]",
COc1ccc(N2C(=O)CC(SCC(=O)O)C2=O)cc1 (stereo unspecified),,inactive: 22.6%
Cc1ccc(C)c(NC(=O)N2CC=C(c3c[nH]c4ccccc34)CC2)c1,"inconclusive [inhibitor, partial curve, poor fit]",

Compound,Potency,"activity change, negative = inhibition"
COc1ccc(OCC(=O)OCC(=O)NC2CCCCC2C)cc1 (stereo unspecified),,inactive: 0.916%
Fc1ccc(COc2cccc3cccnc23)cc1,,inactive: 3.52%
CCOc1ccccc1/C=N/n1c(COc2ccccc2)n[nH]c1=S,"inconclusive [inhibitor, single point]",
Cc1cc(N2CCCC2)ccc1/C=C1\NC(=S)N(C)C1=O,,inactive: -2.09%
Cn1cnnc1Sc1nc2c(c(=O)n(C)c(=O)n2C)n1C,"inconclusive [inhibitor, single point]",
O=S(=O)(Nc1ccccc1N1CCCCC1)c1ccc(Cl)s1,"inconclusive [inhibitor, single point]",
Cn1cc(SCC(N)=O)c2ccccc21,,inactive: 9.86%
CS(=O)(=O)N1CCc2cc(C(=O)Nc3ccc(O)cc3)ccc21,"inconclusive [inhibitor, partial curve]",
C=C/C(C)=C/C[C@H]1C(=C)CCC2[C@](C)(C(=O)O)CCC[C@@]21C (stereo partly specified),"inconclusive [inhibitor, single point]",
Cc1ccc(NC(=O)C2CCCN(S(=O)(=O)c3cccs3)C2)c(C)c1 (stereo unspecified),,inactive: 1.39%
CC(C)(C)OC(=O)C[C@@H]1C/C=C\C[C@H](CC(=O)N(CCO)Cc2ccccc2)C(=O)N[C@H](C(C)(C)C)COC1=O,"inconclusive [inhibitor, single point]",
CCOC(=O)c1[nH]c(C)c(CN(C(C)=O)c2ccc(OCC)cc2)c1C,"inconclusive [inhibitor, single point]",
O=C(NC1CCCCC1)C(c1ccncc1)N(C(=O)c1csnn1)c1ccccc1 (stereo unspecified),,inactive: 9.46%
Oc1ccc(Br)cc1-c1nc2cnccn2c1NC1CCCCC1,"inconclusive [inhibitor, single point]",
O=C(CSc1nc(N2CCCCC2)nc(N2CCCCC2)n1)N1CCN(c2ccccc2)CC1,,inactive: -7.37%
O=C(CCCCCn1c(=O)c2sccc2n(CC(=O)Nc2ccccc2F)c1=O)NCc1ccc2c(c1)OCO2,"inconclusive [inhibitor, partial curve, poor fit]",
O=S(=O)(Cc1cc(NCc2ccccc2)nc(-c2ccccn2)n1)c1ccccc1,,inactive: 0.551%
COC(=O)c1[nH]c2cc(OC)ccc2c1NC(=O)CCN1CCCCC1,"inconclusive [inhibitor, single point]",
CCCCn1c(N)c(N(CCOC)C(=O)c2cc(-c3ccco3)nc3ccccc23)c(=O)[nH]c1=O,"inconclusive [inhibitor, single point]",
O=S(=O)(NCCc1csc2nc(-c3ccc(Cl)cc3)nn12)c1cccs1,"inconclusive [inhibitor, single point]",
Cc1cccc(-n2ncc3c(NCCOCCO)ncnc32)c1,"inconclusive [inhibitor, single point]",
CCC(Sc1nnc(-c2ccc(F)cc2)c(-c2ccc(F)cc2)n1)C(=O)NC1CCCC1 (stereo unspecified),"inconclusive [inhibitor, partial curve]",
O=C(NNC(=O)c1csc(-c2ccccc2)n1)c1ccccc1,"inconclusive [inhibitor, single point]",
CSc1ncc(C(=O)Nc2cc(C)ccc2C)c(C)n1,"inconclusive [inhibitor, single point]",

Compound,Potency,"activity change, negative = inhibition"
COc1ccc(-c2cn3c(n2)sc2cc(C(=O)NCCCN4CCN(C)CC4)ccc23)cc1,,inactive: -5.22%
CC1Cc2ccccc2N1C(=O)COC(=O)c1ccc(N(C)C)cc1 (stereo unspecified),"inconclusive [inhibitor, single point]",
O=c1c2ccc(Cl)cc2[nH]c(=S)n1Cc1cccnc1,,inactive: 2.1%
COc1ccc(-c2nn(-c3ccccc3)cc2/C=C2/SC(=S)N(CCC(=O)O)C2=O)c(C)c1,"inconclusive [inhibitor, single point]",
Cc1[nH]n(-c2ccccc2)c(=O)c1N=Nc1c(O)cc(S(=O)(=O)N(C)C)c2ccccc12,,inactive: 58.9%
O=C(NN1C(=O)c2cc(Br)ccc2NC1c1cc(Br)cc(Br)c1O)c1ccncc1 (stereo unspecified),"inconclusive [inhibitor, partial curve, poor fit]",
CCC(C)NC(=O)c1cc2cc3ccc(OC)cc3nc2s1 (stereo unspecified),"inconclusive [inhibitor, single point]",
O=C(O)C(S)C(S)C(=O)O (stereo unspecified),,inactive: -12.1%
Cc1ccc2nc3ccc(N4CCCC4)nn3c(=O)c2c1,,inactive: 12.9%
O=C(Cc1c(F)cccc1Cl)N/N=C/c1cccnc1,"inconclusive [inhibitor, single point]",
COc1ccc(/C=C2\SC(=O)NC2=S)cc1OC,"inconclusive [inhibitor, single point]",
Cc1oc2c(c1C(=O)NCc1ccccc1F)C1=NCCN1C=N2,"inconclusive [inhibitor, partial curve]",
COc1cccc(-c2oc3c(c2C#CC2(N)CCCCC2)C(O)CCC3)c1 (stereo unspecified),"inconclusive [inhibitor, partial curve, poor fit]",
Cc1ccc(C(=O)NC2CCCCC2)cc1,,inactive: 12.4%
O=C(O)c1cc(-c2ccccc2)nn1Cc1ccccc1,,inactive: 16.2%
COc1ccc(-c2c3c([nH]c(=S)c2C#N)CCC3)cc1,"inconclusive [inhibitor, single point]",
CC(C)Cn1c(SCC(=O)N2CCCc3ccccc32)nc2ccccc2c1=O,"inconclusive [inhibitor, single point]",
CN(C(=O)COC(=O)c1ccc(=O)n(Cc2ccccc2)n1)c1ccccc1,"inconclusive [inhibitor, single point]",
COc1ccc(S(=O)(=O)/N=C2\C=C(NS(=O)(=O)c3ccccc3)C(=O)c3ccccc32)cc1,"inconclusive [inhibitor, single point]",
CCOc1c(Cl)cc(CNc2ccc3[nH]c(=O)[nH]c3c2)cc1OC,,inactive: 9.32%
Cc1ccccc1N=Cc1cccc(O)c1O,"inconclusive [inhibitor, single point]",
O=C(NC(=S)NNC(=O)c1cc2ccccc2cc1O)c1ccco1,"inconclusive [inhibitor, single point]",
CC(=O)C(Cl)C(=O)Nc1ccccc1 (stereo unspecified),"inconclusive [inhibitor, single point]",
